Experimental data reported in PubChem BioAssay AID485344 (National Center for Advancing Translational Sciences (NCATS), 2010).
The campaign covered roughly 340,000 compounds. About 6,900 (2%) were called active. Rule as the data show it: active = inhibition above about 30%; inactive = below that, where a call was filed. The entries are a selection whose mix differs from that of the whole data set. Where no call is shown, the source filed none.

Each compound was assayed against D(2) dopamine receptor (Homo sapiens) (UniProt P14416) (assay: HTS Assay for Allosteric Antagonists of the Human D2 Dopamine Receptor: Primary Screen for Antagonists). Conditions: HEK293 TREx D2 cells, calcium flux, dopamine EC80; at 10 µM; stronger effect = higher value.
Method in brief: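 Antagonism is scored as inhibition of an EC80 dopamine-evoked calcium signal in a force-coupled, tetracycline-inducible HEK293 T-REx D2 line, with compound present 180 s before agonist.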
Also: 0% is about no effect.

UniProt P14416, sequence (P14416 whole entry, looked up): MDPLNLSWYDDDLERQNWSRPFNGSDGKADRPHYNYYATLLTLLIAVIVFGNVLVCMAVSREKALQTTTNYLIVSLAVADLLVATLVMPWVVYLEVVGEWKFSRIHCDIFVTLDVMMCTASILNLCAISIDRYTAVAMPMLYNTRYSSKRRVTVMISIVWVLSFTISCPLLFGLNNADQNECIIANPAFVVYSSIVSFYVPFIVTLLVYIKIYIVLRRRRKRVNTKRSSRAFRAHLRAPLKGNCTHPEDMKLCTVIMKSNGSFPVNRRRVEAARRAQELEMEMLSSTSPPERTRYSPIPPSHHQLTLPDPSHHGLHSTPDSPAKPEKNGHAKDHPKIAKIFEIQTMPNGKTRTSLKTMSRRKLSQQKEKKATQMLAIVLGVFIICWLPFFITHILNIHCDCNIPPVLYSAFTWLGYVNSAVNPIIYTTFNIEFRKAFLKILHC

Q: How did the inhibition turn out when `CCN(CC)c1ccc(C(=O)NCc2ccc3c(c2)CCN3C(=O)c2cccc(C)c2)cc1` was run?
A: 7.54%

Q: How did the inhibition turn out when `CCOc1ccc(C2C(=O)N(C3CCCCCC3)CC(=O)N2Cc2ccc(F)cc2)cc1OC` (centres undefined) was run?
A: -4.8%

Q: For `CCN(CC)c1ccc(NC(=O)CN(C)S(=O)(=O)c2cccc3nsnc23)c(C)c1`, which inhibition is on record?
A: 3.22%

Q: `CCOc1ccc(CCNC(=O)C(CC(C)C)N2Cc3ccccc3C2=O)cc1OCC` (centres undefined) was tested. Which inhibition did it give?
A: -12.8%

Q: With `CCOc1ccccc1NC(=O)Nc1ccc2nc(N3CCN(C)CC3)cc(C)c2c1` as the compound, how does the inhibition read?
A: 5.44%

Q: With `COc1ccc(C(=O)Nc2ccc(N3CCN(c4ccccc4)CC3)c(C(=O)O)c2)cc1` as the compound, how does the inhibition read?
A: 6.69%

Q: `COc1c(C)cccc1C(=O)Nc1ccc(Cl)c(-c2nc3cc(C)ccc3o2)c1` was tested. Which inhibition did it give?
A: -0.278%

Q: How did the inhibition turn out when `CC(C)CCOc1ccc(Cn2c(=O)sc3ccccc32)cc1` was run?
A: -1.74%

Q: With `CCOc1ccc(CCNC(=O)CSc2nc3ccccc3nc2Cc2ccc(C)cc2)cc1OCC` as the compound, how does the inhibition read?
A: 19.4%

Q: With `CC(C)c1ccc(NC(=O)CSc2ncnc3c2sc2ccccc23)cc1` as the compound, how does the inhibition read?
A: 21.8%

Q: Which inhibition does the source give for `COc1ccccc1CNCc1ccc(C(=O)O)s1` here?
A: -6.18%

Q: Which inhibition does the source give for `COc1ccc(NC(=O)Cn2ncc3c(C)n(Cc4cccc(Cl)c4)c(C)c3c2=O)cc1` here?
A: -1.48%

Q: With `CC1CN(CCOc2ccccc2-c2ccccc2)CC(C)O1` (centres undefined) as the compound, how does the inhibition read?
A: active: 71.1%

Q: With `CC(C)c1ccc(NC(=O)c2ccc3oc(=O)c(S(=O)(=O)c4ccc(F)cc4)cc3c2)cc1` as the compound, how does the inhibition read?
A: -5.82%

Q: `CCOCCc1nn2c(=O)cc(COC(=O)COc3ccc(C)c(C)c3)nc2s1` was tested. Which inhibition did it give?
A: 5.25%

Q: With `O=C(Oc1cccc(Oc2ccccc2)c1)N1CCOCC1` as the compound, how does the inhibition read?
A: active: 40.9%

Q: Which inhibition does the source give for `COc1cn(CC(=O)Nc2c(C)cc(C)cc2C)c(CN2CCCCC2)cc1=O` here?
A: 12.4%

Q: `O=C(c1ccc2c3c(cccc13)CC2)C1CCCN(Cc2ccc(OCCO)cc2)C1` (centres undefined) was tested. Which inhibition did it give?
A: active: 30.8%

Q: With `Cc1nc(SCc2cc(=O)c3cccc(F)c3[nH]2)n[nH]1` as the compound, how does the inhibition read?
A: -3.07%

Q: Which inhibition does the source give for `COc1ccc(C)cc1NC(=O)CCCN1C(=O)C(c2ccccc2)Oc2cccnc21` (centres undefined) here?
A: active: 37.9%

Q: With `CCc1ccc(NC(=O)CC2C(=O)NCCN2C(=O)c2ccccc2OC)cc1` (centres undefined) as the compound, how does the inhibition read?
A: -12.2%

Q: How did the inhibition turn out when `COc1ccc(-c2c(C)c3ccc(O)c(CN4CCCCC4)c3oc2=O)cc1OC` was run?
A: -2.32%

Q: Which inhibition does the source give for `Cc1ccc2nc(N(Cc3cccnc3)C(=O)c3ccco3)sc2c1` here?
A: 16.7%

Q: `Cc1cc(C)n(-c2ccc(C(=O)N3CC(C)OC(C)C3)cc2)n1` (centres undefined) was tested. Which inhibition did it give?
A: active: 34.4%

Q: `Cc1cccc(N2CCN(C(=O)c3cn(C)c4ccc(S(=O)(=O)N(C)C)cc4c3=O)CC2C)c1` (centres undefined) was tested. Which inhibition did it give?
A: 11.9%

Q: How did the inhibition turn out when `CCc1ccc(CNC(=O)c2ccc(CS(=O)c3ccc(Br)cc3)o2)cc1` (centres undefined) was run?
A: -9.35%

Q: With `CCc1nnc(SCC(=O)Nc2ccc(Cl)cc2F)c2cc3occc3n12` as the compound, how does the inhibition read?
A: 21.7%

Q: How did the inhibition turn out when `CCOC(=O)Cn1c(=O)n(-c2ccccc2OC)c2nc(-c3ccccc3)nc(C(N)=O)c21` was run?
A: 5.58%

Q: How did the inhibition turn out when `CCc1ccc(-n2c(SCc3nc(-c4cc(OC)ccc4OC)no3)nnc2-c2ccccc2)cc1` was run?
A: 1.83%

Q: Which inhibition does the source give for `COc1ccc(C2=CC(c3ccccc3Cl)n3nc(-c4ccc(C)cc4)nc3N2)cc1` (centres undefined) here?
A: -12.4%

Q: For `CCOC(=O)c1c(NC(=O)CCCOc2ccc(C)cc2)sc2c1CCC(C)C2` (centres undefined), which inhibition is on record?
A: -7.15%

Q: With `COc1ccc(-c2nc3ccccc3s2)cc1NC(=O)c1ccc(C#N)cc1F` as the compound, how does the inhibition read?
A: -11.8%

Q: Which inhibition does the source give for `CCn1c(C(=O)NCc2ccc(C)cc2)cc2sc(Cl)cc21` here?
A: -19.5%

Q: With `CCC12CN3CC(CC)(CN(C1)C3c1cccc(OC)c1O)C2=O` (centres undefined) as the compound, how does the inhibition read?
A: -15.9%

Q: For `COc1cc2c(cc1NC(=O)COc1ccc(Br)c(C)c1)oc1ccccc12`, which inhibition is on record?
A: 7.86%

Q: Which inhibition does the source give for `CCc1ccc(CN(C(=O)c2ccc(OC)cc2)C2CCS(=O)(=O)C2)cc1` (centres undefined) here?
A: -8.85%

Q: `COc1ccc(-c2onc(C)c2C)cc1S(=O)(=O)N1CCc2ccccc21` was tested. Which inhibition did it give?
A: 9.34%

Q: With `Cc1noc(C)c1S(=O)(=O)Nc1ccc(C(=O)Nc2ccc(C(C)C)cc2)cc1` as the compound, how does the inhibition read?
A: 13.1%

Q: How did the inhibition turn out when `Cc1cc(Br)cc(C)c1NC(=O)c1cnc2ccccn2c1=O` was run?
A: 8.3%

Q: Which inhibition does the source give for `COc1ccc(NC(=O)C(NC(=O)Cc2cccs2)c2ccc(OC)cc2)cc1` (centres undefined) here?
A: -1.09%

Q: Which inhibition does the source give for `Cn1c2c(c(=O)n(C)c1=O)C(c1cccc(O)c1)CC(=O)N2` (centres undefined) here?
A: 1.83%

Q: For `Cc1nn2c(=O)cc(COC(=O)c3ccc(F)cc3)nc2s1`, which inhibition is on record?
A: 0.155%

Q: With `COc1ccc(NC(=O)/C(Cl)=C(/Cl)S(=O)Cc2ccccc2)cn1` (centres undefined) as the compound, how does the inhibition read?
A: active: 32%

Q: For `COc1ccc(C(=O)c2cn(Cc3cccc(C)c3)c3cc4c(cc3c2=O)OCCO4)cc1OC`, which inhibition is on record?
A: -2.07%

Q: `CCc1ccc(NC(=O)CN2C(=O)CCSc3ccc(S(=O)(=O)N4CCCC4)cc32)cc1` was tested. Which inhibition did it give?
A: 2.07%

Q: `COc1ccc(CCNC(=O)Cn2ccc3cc(S(=O)(=O)N4CCCCC4)ccc32)cc1OC` was tested. Which inhibition did it give?
A: 7.29%

Q: For `CCN(CC)CCNC(=O)Cn1ncc2c3ccccc3n(Cc3ccccc3C)c2c1=O`, which inhibition is on record?
A: -0.785%

Q: Which inhibition does the source give for `Cc1ccc(N(C(=O)c2cccc(C)c2)S(=O)(=O)c2ccc(Cl)cc2)cc1` here?
A: 4.42%

Q: `Cn1nnnc1SCCCNCc1ccccc1OCc1ccccc1F` was tested. Which inhibition did it give?
A: -25.5%
